Data taken from publication PMC4336329 (PLoS ONE, 2015).
Among all 310,000 compounds or so, about 2,200 (0.71%) showed an effect of 50% or more. Effects have a minus sign here. This is one part of the list.

Target: human ether-à-go-go-related gene (hERG) potassium channel (human, UniProt Q12809)
Experiment: primary screen, population patch clamp on CHO cells stably expressing hERG

Sequence of human ether-à-go-go-related gene (hERG) potassium channel (Q12809 whole entry, looked up): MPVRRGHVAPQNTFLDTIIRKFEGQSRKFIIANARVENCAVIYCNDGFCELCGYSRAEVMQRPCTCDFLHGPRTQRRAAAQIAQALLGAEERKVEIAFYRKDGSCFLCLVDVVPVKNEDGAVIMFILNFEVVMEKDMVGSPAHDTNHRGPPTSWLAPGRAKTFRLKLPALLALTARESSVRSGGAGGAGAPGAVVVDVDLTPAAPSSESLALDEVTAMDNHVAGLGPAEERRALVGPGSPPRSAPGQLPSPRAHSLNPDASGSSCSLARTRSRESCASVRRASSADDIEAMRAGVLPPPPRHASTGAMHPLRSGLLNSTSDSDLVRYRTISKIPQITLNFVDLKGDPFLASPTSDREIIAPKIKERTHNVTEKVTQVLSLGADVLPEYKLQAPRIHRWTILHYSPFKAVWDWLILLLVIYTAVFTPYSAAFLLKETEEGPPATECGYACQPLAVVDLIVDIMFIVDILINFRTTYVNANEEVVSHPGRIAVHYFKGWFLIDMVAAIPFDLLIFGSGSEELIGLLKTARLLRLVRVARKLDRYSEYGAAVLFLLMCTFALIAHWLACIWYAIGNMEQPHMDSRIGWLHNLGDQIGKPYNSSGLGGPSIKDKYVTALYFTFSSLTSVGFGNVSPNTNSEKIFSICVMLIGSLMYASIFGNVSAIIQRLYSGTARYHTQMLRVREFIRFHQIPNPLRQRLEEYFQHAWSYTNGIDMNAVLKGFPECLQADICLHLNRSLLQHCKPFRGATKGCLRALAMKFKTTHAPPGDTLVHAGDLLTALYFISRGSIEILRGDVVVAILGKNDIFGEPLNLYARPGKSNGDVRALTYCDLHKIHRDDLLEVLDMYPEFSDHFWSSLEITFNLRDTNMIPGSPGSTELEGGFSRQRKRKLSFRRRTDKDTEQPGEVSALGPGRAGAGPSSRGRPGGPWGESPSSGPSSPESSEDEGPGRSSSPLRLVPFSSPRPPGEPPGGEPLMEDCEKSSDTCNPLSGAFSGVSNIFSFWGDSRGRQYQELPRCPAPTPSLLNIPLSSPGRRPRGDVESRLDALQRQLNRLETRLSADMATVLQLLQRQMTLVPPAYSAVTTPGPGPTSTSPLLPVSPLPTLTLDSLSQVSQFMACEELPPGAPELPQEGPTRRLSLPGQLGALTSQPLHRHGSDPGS

Compound | hERG current change (%, negative = inhibition) at 1uM [%]
Cc1ccc(S(=O)(=O)N2CCN(C(=O)NCc3ccc(C(=O)O)cc3)CC2)cc1 | 6.3
Cc1cc(C)cc(Nc2ncc3c(n2)CCCC3=O)c1 | 6.58
CC(C)Oc1ccc(CNC(=O)CCC(=O)N2CC(C)Sc3ccccc32)cc1 (centres unmarked) | -0.0173
COC(=O)c1ccc(CSc2ncn[nH]2)o1 | 7.19
CC1(C)NC(=O)N(CC(=O)OCC(=O)Nc2cccc(F)c2)C1=O | 3.89
CCCCOCCCN1C(C)=CC(=C2C(=O)NC(=S)NC2=O)C=C1C | 5.5
CC(C)c1ccc(-c2nc3ccccc3s2)cc1 | 12.6
O=C(NCCOc1ccc(F)cc1)C1CCN(S(=O)(=O)c2ccccc2)CC1 | -4.22
COc1ccc(/C=C2\CC/C(=C\c3ccc(OC)c(OC)c3)C2=O)cc1OC | 2.08
CCc1c(C)sc(NC(=O)c2cc(C(C)C)on2)c1C#N | 11.1
COc1ccc(/C=N/NC(=O)c2ccc3c(c2)OCO3)c(C(=O)O)c1OC | 12.7
CCCCOc1ccc(OCCNC(=O)C2CCCN2C(=O)Nc2ccccc2)cc1 (centres unmarked) | 10.6
O=C(CNc1cccc(C(F)(F)F)c1)Nc1cccc(S(=O)(=O)N2CCCC2)c1 | 16.2
CN(CCOc1ccc(Cl)cc1)CC(=O)Nc1ccc(OC(F)F)cc1 | -39
O=c1oc(CCCO)cc2ccc(C#Cc3ccsc3)cc12 | -2.43
O=C(c1cc2ccccc2oc1=O)N(Cc1cccs1)CC1CCCO1 (centres unmarked) | 10.6
COc1ccc(NC(=O)CN(C)C(=O)CSCc2ccc(C)cc2)cc1 | 14.3
CN1C(=O)C(C)(C)c2cc(S(=O)(=O)NCC3CCC(C(=O)NCc4ccc(F)cc4)CC3)ccc21 (centres unmarked) | -17.3
Cc1nnc(SCc2cc(=O)n3[nH]cnc3n2)s1 | -0.582
CC1C(=O)CCN(C(C)(C)C)C1C.Cl (centres unmarked) | 5.02
COc1ccc(-c2cc(C(F)(F)F)n3nc(C(=O)Nc4c(C)n(C)n(-c5ccccc5)c4=O)c(Cl)c3n2)cc1 | 19.9
CCn1cc(S(=O)(=O)Nc2ccccc2C(F)(F)F)cn1 | 13.9
COc1cc(OC)cc(C(=O)Nc2nc(CC(=O)NC(C)c3ccccc3)cs2)c1 (centres unmarked) | 10.1

Compound | hERG current change (%, negative = inhibition) at 1uM [%]
CC(C)c1csc2nc3n(c(=O)c12)CCCCC3 | 3.82
CCC/C=N/NC(=O)c1cc(Br)ccc1O | 6.84
Cc1nc2ccccn2c1CN(C)C(=O)C1CCC(=O)N(Cc2cccc(F)c2)C1 (centres unmarked) | -58
O=C1CC(N(Cc2ccco2)C(=O)Nc2ccc(F)cc2)C(=O)N1c1ccc(F)cc1 (centres unmarked) | 11.2
CC(C)(C)NC(=O)CN(C(=O)C1CSC(=O)C1)c1ccc2c(c1)OCCO2 (centres unmarked) | 0.677
CN(C)CCNC(=O)C(=O)NCC(c1ccc2c(c1)OCO2)N1CCN(c2ccc(F)cc2)CC1 (centres unmarked) | 7.3
C/C(=N\Nc1nc(C)cc(-c2ccccc2)n1)c1ccc(O)cc1 | 7.27
Cc1ccc2oc(=O)n(CCOc3ccccc3Cl)c2c1 | 5.19
CCCCCC(=O)N1CC2(CC(c3cccc(NC(=O)c4ccccc4)c3)=NO2)C[C@@H]1C(N)=O (some centres unmarked) | -7
Cc1ccc(-c2nc3ncccc3o2)cc1NC(=O)c1ccco1 | 11.8
O=c1c2ccccc2cnn1-c1ccc(Cl)nn1 | 12.6
Nc1c(N(CCO)C(=O)C2CCCCC2)c(=O)[nH]c(=O)n1Cc1ccccc1 | 4.53
Cn1c(SCC(=O)N2CCOCC2)nc2cccnc21 | 5.9
COc1ccc(NC(=S)N(Cc2ccc(C)cc2)Cc2ccccn2)cc1 | 12.5
C=CCn1c(COc2cccc(C)c2)nnc1SC(C)C(=O)NC1CC1 (centres unmarked) | 7.14
COc1cc(CCN2C(=O)c3cccc4cccc(c34)C2=O)c(S(=O)(=O)N2CCCCCC2)cc1OC | 3.66
Cc1c(C(=O)N/N=C/c2ccc(O)cc2)sc(=S)n1C | 3.62
CCOc1ccc(C(=O)NCCCN2CCCC2=O)cc1 | -5.31
CCOc1ccc(-n2c(N)c(-c3nc4ccccc4n3C)c3nc4ccccc4nc32)cc1 | 9.72
O=C(c1ccc2c3c(cccc13)CC2)C1CCCN(Cc2ccccn2)C1 (centres unmarked) | 13.3
COc1ccc(CN(CC(=O)NCc2ccco2)C(=O)CCC(=O)Nc2ccccn2)cc1 | 13.5
COc1ccc(N2CCOCC2)c(NC(=O)c2ccc(Br)o2)c1 | 6.18
CSc1nc2ccc(S(=O)(=O)NC3CCCCC3)cc2s1 | 0.616

Compound | hERG current change (%, negative = inhibition) at 1uM [%]
COc1ccc(C(=O)NNC(=O)c2ccc(C(C)(C)C)cc2)cc1 | 8.21
Cc1nnc(SCC(=O)NC(=O)NC(C)(C)C)s1 | 12.5
N#CCSc1nnc(COc2ccc3ccccc3c2)o1 | 11.6
CCOP(=O)(c1ccc(N(C)C)cc1)C(O)c1ccc(C)cc1 (centres unmarked) | 15
CCOc1ccc(C(=S)N2CCCC2)cc1 | 5.79
CC1(C)NC(=O)N(CCCSc2ccc(Cl)cc2)C1=O | -0.732
OCC[C@H]1C[C@H](O)[C@@H](O)[C@]2(Cc3ccccc3CO2)O1 | 14.4
C=CCN1C=C2C(=O)C(C)(OC(=O)C3CCCC3)C(=O)C=C2C=C1c1ccsc1 (centres unmarked) | 14.2
C/C(Nc1ccc(F)cc1)=C(/C#N)C(N)=O | 9.39
Cc1cc(C(=O)N/N=C/c2cccc([N+](=O)[O-])c2)c(C)n1-c1ccccc1 | 0.676
Cc1sc(NC(=O)c2ccc(OCC(C)C)cc2)c(C(N)=O)c1-c1ccc(Cl)cc1Cl | 6.66
O=C(NC1CCCCC1)n1c(=O)oc2ccc(Cl)cc21 | 11.3
COc1ccc(NC(=O)COC(=O)c2cc(=O)c3ccccc3o2)cc1OC | 3.69
CN(C)Cc1c(C#N)c2ccccc2n1C | 8.82
O=C1c2ccccc2C(=O)N1CCc1nc(-c2ccc(Cl)cc2)no1 | 0.0102
CC(=O)COC(=O)CNC(=O)c1ccc(Br)cc1 | 4.38
Cc1ccc(NS(=O)(=O)c2c(C(=O)N3CCCCCC3)c(C)n(C)c2C)cc1C | 18.3
O=C1NC2(CCCCCC2)C(=O)N1Cc1ccccc1F | 10.5
CS(=O)(=O)c1ccc(C(=O)NCc2ccccc2F)cc1 | 8.38
CC(=O)Nc1cccc(C(=O)Nc2ccc(S(=O)(=O)N3CCCCC3)cc2)c1 | 3.07
CCOc1cnc(-c2c(-c3c(Cl)cccc3Cl)noc2C)o1 | 13.8
Cc1cc(NC(=O)c2ccc3c(c2)C(=O)N(C(C)(C)C)C3=O)no1 | 14.1
Cc1ccc(/C=c2\sc3n(c2=O)CN(c2ccc(Br)cc2)CN=3)o1 | 11

Compound | hERG current change (%, negative = inhibition) at 1uM [%]
O=C(Cn1nnc(-c2ccccc2Cl)n1)N/N=C/c1ccc2c(c1)OCO2 | 12.5
CC1(c2ccncc2)Nc2ccccc2-c2nc3ccccc3n21 (centres unmarked) | 12.4
Cc1cc(C(=O)NC(C)C2CCCO2)no1 (centres unmarked) | 3.38
COC(=O)[C@@]12CCCCN1[C@H](c1ccc(-c3cc(C(C)=O)cs3)c(OC)c1)[C@H]1C(=O)N(C)C(=O)[C@H]12.O=C(O)C(F)(F)F | 11.5
CC(=O)Nc1ccc(NC(=S)NC(=O)/C=C/c2ccc(Cl)cc2)cc1 | 13.1
COc1ccc(-c2nnn(CC(=O)N(CCO)C(C(=O)NC3CCCC3)c3ccc(F)cc3)n2)cc1 (centres unmarked) | 5.42
Cc1ccc(NC(=O)C2CCN(S(=O)(=O)c3cnc[nH]3)CC2)cc1C | 0.679
COc1ccccc1N1CCN(C(=O)c2ccc(S(=O)(=O)N3CCCCCC3)cc2)CC1 | 0.821
O=C(Nc1ccc2c(c1)OCO2)c1nn(-c2ccccc2)c(=O)c2ccccc12 | 10.5
COc1cccc(CNC(=O)c2cc3ccccn3n2)c1 | 3.09
CCCCNc1ncnc2c1nnn2Cc1ccccc1Cl | 10.7
CCOC(=O)C(C)Sc1nc(=O)n2ccccc2n1 (centres unmarked) | 10
CCCCS(=O)(=O)Nc1ccc(Cc2ccncc2)cc1 | 1.54
O=C(N/N=C/c1ccc(OC(=O)c2ccc3c(c2)OCO3)cc1)c1cncc(Br)c1 | 4.17
N/C(CC(=O)Nc1ccc(F)c(Cl)c1)=N\OC(=O)c1cccs1 | 13.8
Cc1cccc(NCC(=O)N/N=C\c2c[nH]c3ccccc23)c1 | -3.49
O=C(NC(=O)c1ccc(F)cc1F)Nc1ccc(Cl)cc1 | 16.3
CCCCC(=O)Nc1ccc(NC(=O)c2ccccc2[N+](=O)[O-])cc1OC | -6.04
CCc1c(C2(O)CCCCC2)[nH]c2ccc(C(=O)OC)cc12 | 13.4
COC(=O)C(C)NC(=S)N1CC2C[C@@H](C1)Cn1c2cccc1=O (some centres unmarked) | 15.6
